Data on 32 sequences can be found in the supplement of paper PMC10338343.

± gives the standard deviation. Over roughly 3,000 sequences, “pre-steady-state target cleavage rate” has its median near 0.0079; the highest 2% begin near 0.2. The list shows a part of the results, in another mix than the full data.

The experiment deals with MILI (PIWIL2) piRISC loaded with piRNA #2 (26 nt). The experiment can be described thus: pre-steady-state target cleavage rate (min^-1); MIWI and MILI are mouse PIWI proteins and EfPiwi is from a freshwater sponge; tags in brackets are library labels; higher = faster piRNA-guided slicing of the target. The following applies: guide: piRNA #2 5'p-UUAGGUAACCCAGUAGAUCCAGAGGA; auxiliary factor: 500 nM mouse GTSF1. The method in brief: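 The method was Cleave-'n-Seq, in which uncleaved targets from a transcribed, DNA-blocked target RNA library were sequenced after exposure to active affinity-purified piRISC carrying one synthetic guide, with or without GTSF1 partner protein. Reactions contained 0.1 nM library, 1 nM piRISC and, where present, 500 nM GTSF1 in HEPES–potassium acetate buffer at 33 °C for 0–8 or 0–960 min. Reads were normalised to depth and to weakly complementary targets, three trials were pooled, and k3 was capped at 0.0001 min^-1. The pre-steady-state cleavage rate came from a burst-and-steady-state fit.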
Turning to CUUAUCCUCUGGAUCUACGGGGUUACCUAA, the “pre-steady-state target cleavage rate” value stood at 0.088 ± 0.012.
Next, CUUAUCCUCUGGAUCUACUGGGUUAGGUAA: 0.00735 ± 0.004; CUUAUCCUCUGGAUCAACUGCGUUACCUAA: 0.00726 ± 0.0033.
The result for CUUAAGGAGUGGAUCUACUGGGUUGCCUAA reads 0.0244 ± 0.011; that for CUUAAGGUCUGGAUGCUACUGGGUUACCUAA, 0.0643 ± 0.019; that for CUUAAGGAGAGGAUCUACUGGGUUACCAAA, 0.00579 ± 0.004.
Next, CUUAACCUCUGGAUCUACUGCGUUACCUAA: 0.018 ± 0.0064; CUUAAGCUCUGGAUCUUCUGGGAUACCUAA: 0.0206 ± 0.0087.
CUUAAGCUCUCGAUCUACUGGGUAACCUAA: the “pre-steady-state target cleavage rate” value is 0.04 ± 0.011.
In the case of CUUAUCCUCUCGAUCUACUGCGUUACCUAA, the “pre-steady-state target cleavage rate” value came to 0.0252 ± 0.0058.
Take CUUAUCCUCUGGAUCUUACUGGGUUACCUAA: the “pre-steady-state target cleavage rate” value stood at 0.00479 ± 0.004.
The result for CUUAAGGACUGGAUUCUACUGGGUUACCUAA reads 0.0159 ± 0.011.
Next, CUUAAGGACAGGAUCUACUGGGUUACCUAA: 0.0192 ± 0.013; CUUAAGGAGUGGAUCUACAGGGUUACCUAA: 0.0767 ± 0.012; CUUAUGCUCUGGAUCUACUGGGUUAGCUAA: 0.109 ± 0.019.
With CUUAACCUCUGCAUCUAGUGGGUUACCUAA, the “pre-steady-state target cleavage rate” value was 0.0558 ± 0.015.
On to CUUAACCUCUGGAUCUAGAGGGUUACCUAA, for which the “pre-steady-state target cleavage rate” value is 0.0444 ± 0.013.
On to CUUAUCCUCUGGAUCUACAGGGUUAGCUAA, for which the “pre-steady-state target cleavage rate” value is 0.0334 ± 0.0089.
Regarding “CUUAAGGUCUGGAUCUACUGGGUUACCUAA [g2:g23:cont:t1A]”, the “pre-steady-state target cleavage rate” value worked out at 0.0846 ± 0.015.
As to CUUAAGGAGUGGGUCUACUGGGUUACCUAA, the “pre-steady-state target cleavage rate” value was determined as 0.0176 ± 0.0075.
Next, CUUAACCACUGGAUCUACUGCGUUACCUAA: 0.0115 ± 0.0043; CUUAACCUCUGGAUCUACAGGGUUACGUAA: 0.0359 ± 0.012; CUUAAGGACUGGAUCAACUGGGUUACCUUA: 0.0141 ± 0.0089.
With CUUAAGGUCGUGGAUCUACUGGGUUACCUAA, the “pre-steady-state target cleavage rate” value amounted to 0.0324 ± 0.018.
Next, CUUAAGGAGAGCAUCUACUGCGUUACCUAA: 0.00313 ± 0.0027; CUUAAGCUCUGGAUCAAGUGGGUUACCUAA: 0.0155 ± 0.0044.
Consider CUUAAGGACUGGAUCUACUGGGUUAACCUAA, for which the “pre-steady-state target cleavage rate” value amounted to 0.013 ± 0.012.
The result for CUUAACCUCUGGAUCUACUGGGUUACCUUAA reads 0.0882 ± 0.022.
Next, CUUAAGCUCUGGAUCUACUGAGUUACCUAA: 0.0312 ± 0.0091; CUUAAGGACUGGAUGUACUGGGUUAGCUAA: 0.0136 ± 0.011.
For CUUAUCGUCUGGAUCUACUGGGUUACCUUA, the “pre-steady-state target cleavage rate” value stood at 0.0588 ± 0.013.
Next, CUUAUCGUCUGGAUCUACAGGGUUACCUAA: 0.0634 ± 0.0087.
